# Data reported in the supplement of paper PMC10037445.
# ± gives the standard deviation of the averaged measurements. In all, about 2,900 compounds were measured (“NF-kB SEAP reporter activity, fold change vs agonist alone”: median about 0.99, highest 2% from about 2.6 on). The list shows a part of the results.
# What was measured:
# RAW-Dual [1] = assay: NF-kB SEAP reporter activity, fold change vs agonist alone; higher = enhanced NF-kB activity; details: library stock concentration (final ~1000-fold dilution): 10 mM
# Outline: (§1)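 Library stock was pin-tooled at 50 nL into 384-well plates of RAW-Dual macrophages (50,000 cells/well, DMEM), followed 1 h later by a PRR agonist, and the cells were kept at 37 °C, 5% CO2. Supernatant collected after 20 hours was read for IRF by QuantiLuc luminescence and for NF-κB by QuantiBlue absorbance at 620 nm. Reporter activity is fold change over agonist-alone wells, and a well counted as cytotoxic when its IncuCyte confluency was below 70% of agonist controls in both mask sets.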
# RAW-Dual [2] = assay: NF-kB SEAP reporter activity, fold change vs agonist alone; cytotoxicity flag (confluency mask): cytotoxic (confluency <70% of control); higher = enhanced NF-kB activity
# Outline: as §1
# RAW-Dual [3] = assay: NF-kB SEAP reporter activity, fold change vs agonist alone; cytotoxicity flag (confluency mask): not cytotoxic; higher = enhanced NF-kB activity
# Outline: as §1
# [4] = cytotoxicity flag (confluency mask): cytotoxic (confluency <70% of control), agonist: Imiquimod (TLR7) […]
# [5] = cytotoxicity flag (confluency mask): cytotoxic (confluency <70% of control), agonist: MPLA (TLR4) […]
# [6] = agonist: ODN 1826 (TLR9) 0.5 ug/mL
# [7] = agonist: Pam2CSK4 (TLR2/6) 0.1 ug/mL
# [8] = agonist: Pam3CSK4 (TLR2/1) 0.1 ug/mL
# [9] = cytotoxicity flag (confluency mask): not cytotoxic, agonist: Imiquimod (TLR7) […]
# [10] = cytotoxicity flag (confluency mask): not cytotoxic, agonist: MPLA (TLR4) […]
smiles,measurement,setting,value
COc1ccc(Cl)c(Nc2nc3ccccc3nc2NS(=O)(=O)c2cccc(NC(=O)C(C)(C)N)c2)c1,NF-kB SEAP reporter activity,RAW-Dual [1]; [4],1.18
same,NF-kB SEAP reporter activity,RAW-Dual [1]; [5],1.19
COc1ccc(Cl)c(Nc2nc3ccccc3nc2NS(=O)(=O)c2cccc(NC(=O)C(C)(C)N)c2)c1 (library stock concentration (final ~1000-fold dilution): 10 mM),NF-kB SEAP reporter activity,RAW-Dual [2]; agonist: LPS (TLR4) 0.1 ug/mL,1.3
same,NF-kB SEAP reporter activity,RAW-Dual [2]; [6],0.767
same,NF-kB SEAP reporter activity,RAW-Dual [2]; [7],0.79
same,NF-kB SEAP reporter activity,RAW-Dual [2]; [8],0.81
COc1cc(-c2ncn(/C=C\C(=O)OC(C)C)n2)cc(C(F)(F)F)c1,NF-kB SEAP reporter activity,RAW-Dual [1]; [4],2.31
same,NF-kB SEAP reporter activity,RAW-Dual [1]; [5],0.454
COc1cc(-c2ncn(/C=C\C(=O)OC(C)C)n2)cc(C(F)(F)F)c1 (library stock concentration (final ~1000-fold dilution): 10 mM),NF-kB SEAP reporter activity,RAW-Dual [2]; agonist: LPS (TLR4) 0.1 ug/mL,0.272
same,NF-kB SEAP reporter activity,RAW-Dual [2]; [6],0.99
same,NF-kB SEAP reporter activity,RAW-Dual [2]; [7],0.411
same,NF-kB SEAP reporter activity,RAW-Dual [2]; [8],0.287
COc1ccc(-c2nc(N3CCOCC3)c3sc(CN(C)c4ncc(C(=O)NO)cn4)cc3n2)cn1,NF-kB SEAP reporter activity,RAW-Dual [1]; [4],2.88
same,NF-kB SEAP reporter activity,RAW-Dual [1]; [5],2.66
COc1ccc(-c2nc(N3CCOCC3)c3sc(CN(C)c4ncc(C(=O)NO)cn4)cc3n2)cn1 (library stock concentration (final ~1000-fold dilution): 10 mM),NF-kB SEAP reporter activity,RAW-Dual [2]; agonist: LPS (TLR4) 0.1 ug/mL,4.34
same,NF-kB SEAP reporter activity,RAW-Dual [2]; [6],2.1
same,NF-kB SEAP reporter activity,RAW-Dual [2]; [7],1.3
same,NF-kB SEAP reporter activity,RAW-Dual [2]; [8],1.6
O=C(Cc1ccccc1)Nc1nnc(CCSCCc2nnc(NC(=O)Cc3ccccc3)s2)s1 (library stock concentration (final ~1000-fold dilution): 10 mM),NF-kB SEAP reporter activity,RAW-Dual [3]; agonist: LPS (TLR4) 0.1 ug/mL,1.04
same,NF-kB SEAP reporter activity,RAW-Dual [3]; [6],0.939
same,NF-kB SEAP reporter activity,RAW-Dual [3]; [7],0.585
same,NF-kB SEAP reporter activity,RAW-Dual [3]; [8],0.733
O=C(Cc1ccccc1)Nc1nnc(CCSCCc2nnc(NC(=O)Cc3ccccc3)s2)s1,NF-kB SEAP reporter activity,RAW-Dual [1]; [9],0.885
same,NF-kB SEAP reporter activity,RAW-Dual [1]; [10],1.25
Cc1cnc(Nc2ccc(OCCN3CCCC3)cc2)nc1Nc1cccc(S(=O)(=O)NC(C)(C)C)c1,NF-kB SEAP reporter activity,RAW-Dual [1]; [4],3.13
same,NF-kB SEAP reporter activity,RAW-Dual [1]; [5],2.73
Cc1cnc(Nc2ccc(OCCN3CCCC3)cc2)nc1Nc1cccc(S(=O)(=O)NC(C)(C)C)c1 (library stock concentration (final ~1000-fold dilution): 10 mM),NF-kB SEAP reporter activity,RAW-Dual [2]; agonist: LPS (TLR4) 0.1 ug/mL,4.34
same,NF-kB SEAP reporter activity,RAW-Dual [2]; [6],1.22
same,NF-kB SEAP reporter activity,RAW-Dual [2]; [7],2.05
same,NF-kB SEAP reporter activity,RAW-Dual [2]; [8],3.55
CC(O)CO.CCOc1ccc(Cc2cc(C3OC(CO)C(O)C(O)C3O)ccc2Cl)cc1.O (stereo unspecified),NF-kB SEAP reporter activity,RAW-Dual [1]; [9],1.11
same,NF-kB SEAP reporter activity,RAW-Dual [1]; [10],1.08
CC(O)CO.CCOc1ccc(Cc2cc(C3OC(CO)C(O)C(O)C3O)ccc2Cl)cc1.O (stereo unspecified) (library stock concentration (final ~1000-fold dilution): 10 mM),NF-kB SEAP reporter activity,RAW-Dual [3]; agonist: LPS (TLR4) 0.1 ug/mL,1.46
same,NF-kB SEAP reporter activity,RAW-Dual [3]; [6],1.16
same,NF-kB SEAP reporter activity,RAW-Dual [3]; [7],0.996
same,NF-kB SEAP reporter activity,RAW-Dual [3]; [8],1.31
C=C1CCC2C(C)(CO)C(O)CCC2(C)C1C/C=C1/C(=O)OCC1O (stereo unspecified) (library stock concentration (final ~1000-fold dilution): 10 mM),NF-kB SEAP reporter activity,RAW-Dual [3]; agonist: LPS (TLR4) 0.1 ug/mL,0.565 ± 0.2
same,NF-kB SEAP reporter activity,RAW-Dual [3]; [6],0.418 ± 0.039
same,NF-kB SEAP reporter activity,RAW-Dual [3]; [7],0.96 ± 0.18
same,NF-kB SEAP reporter activity,RAW-Dual [3]; [8],0.65 ± 0.11
C=C1CCC2C(C)(CO)C(O)CCC2(C)C1C/C=C1/C(=O)OCC1O (stereo unspecified),NF-kB SEAP reporter activity,RAW-Dual [1]; [9],0.933 ± 0.078
same,NF-kB SEAP reporter activity,RAW-Dual [1]; [10],0.792 ± 0.1
CC1=C(C)C(=O)C(C(CCCCCC(=O)O)c2ccccc2)=C(C)C1=O (stereo unspecified) (library stock concentration (final ~1000-fold dilution): 10 mM),NF-kB SEAP reporter activity,RAW-Dual [3]; agonist: LPS (TLR4) 0.1 ug/mL,1.13
same,NF-kB SEAP reporter activity,RAW-Dual [3]; [6],1.02
same,NF-kB SEAP reporter activity,RAW-Dual [3]; [7],0.973
same,NF-kB SEAP reporter activity,RAW-Dual [3]; [8],1.1
CC1=C(C)C(=O)C(C(CCCCCC(=O)O)c2ccccc2)=C(C)C1=O (stereo unspecified),NF-kB SEAP reporter activity,RAW-Dual [1]; [9],0.954
same,NF-kB SEAP reporter activity,RAW-Dual [1]; [10],0.925
CCC1/C=C(\C)CC(C)CC(OC)C2OC(O)(C(=O)C(=O)N3CCCCC3C(=O)OC(/C(C)=C/C3CCC(Cl)C(OC)C3)C(C)C(O)CC1=O)C(C)CC2OC (stereo unspecified),NF-kB SEAP reporter activity,RAW-Dual [1]; [10],1.3
CCC1/C=C(\C)CC(C)CC(OC)C2OC(O)(C(=O)C(=O)N3CCCCC3C(=O)OC(/C(C)=C/C3CCC(Cl)C(OC)C3)C(C)C(O)CC1=O)C(C)CC2OC (stereo unspecified) (library stock concentration (final ~1000-fold dilution): 10 mM),NF-kB SEAP reporter activity,RAW-Dual [3]; agonist: LPS (TLR4) 0.1 ug/mL,1.83
same,NF-kB SEAP reporter activity,RAW-Dual [3]; [6],0.465
same,NF-kB SEAP reporter activity,RAW-Dual [3]; [7],0.366
same,NF-kB SEAP reporter activity,RAW-Dual [3]; [8],0.368
CC(C)Oc1ccc(-c2cnc3c(-c4ccnc5ccccc45)cnn3c2)cc1 (library stock concentration (final ~1000-fold dilution): 10 mM),NF-kB SEAP reporter activity,RAW-Dual [3]; agonist: LPS (TLR4) 0.1 ug/mL,2.2
same,NF-kB SEAP reporter activity,RAW-Dual [3]; [6],0.989
same,NF-kB SEAP reporter activity,RAW-Dual [3]; [7],0.975
same,NF-kB SEAP reporter activity,RAW-Dual [3]; [8],0.875
CC(C)Oc1ccc(-c2cnc3c(-c4ccnc5ccccc45)cnn3c2)cc1,NF-kB SEAP reporter activity,RAW-Dual [1]; [9],1.01
same,NF-kB SEAP reporter activity,RAW-Dual [1]; [10],1.08
CC1CCC2(C(=O)OC3OC(COC4OC(CO)C(OC5OC(C)C(O)C(O)C5O)C(O)C4O)C(O)C(O)C3O)CCC3(C)C(=CCC4C5(C)CC(O)C(O)C(C)(CO)C5CCC43C)C2C1C (stereo unspecified) (library stock concentration (final ~1000-fold dilution): 10 mM),NF-kB SEAP reporter activity,RAW-Dual [3]; agonist: LPS (TLR4) 0.1 ug/mL,0.922
same,NF-kB SEAP reporter activity,RAW-Dual [3]; [6],1
same,NF-kB SEAP reporter activity,RAW-Dual [3]; [7],1.04
same,NF-kB SEAP reporter activity,RAW-Dual [3]; [8],1.05
CC1CCC2(C(=O)OC3OC(COC4OC(CO)C(OC5OC(C)C(O)C(O)C5O)C(O)C4O)C(O)C(O)C3O)CCC3(C)C(=CCC4C5(C)CC(O)C(O)C(C)(CO)C5CCC43C)C2C1C (stereo unspecified),NF-kB SEAP reporter activity,RAW-Dual [1]; [9],0.997
same,NF-kB SEAP reporter activity,RAW-Dual [1]; [10],1.05
c1ccc2c(CCNc3ccc(Nc4ccncc4)cc3)c[nH]c2c1,NF-kB SEAP reporter activity,RAW-Dual [1]; [9],2.49
same,NF-kB SEAP reporter activity,RAW-Dual [1]; [10],1.98
c1ccc2c(CCNc3ccc(Nc4ccncc4)cc3)c[nH]c2c1 (library stock concentration (final ~1000-fold dilution): 10 mM),NF-kB SEAP reporter activity,RAW-Dual [3]; agonist: LPS (TLR4) 0.1 ug/mL,1.15
same,NF-kB SEAP reporter activity,RAW-Dual [3]; [6],0.221
same,NF-kB SEAP reporter activity,RAW-Dual [3]; [7],0.868
same,NF-kB SEAP reporter activity,RAW-Dual [3]; [8],1.17
